In patent publication US20230322822A1, “ARYL PHOSPHOROUS OXIDE COMPOUNDS AND USE THEREOF” (Chengdu Di'ao Jiuhong Pharmaceutical Factory, priority 2020, published 2023):
pIC50: −log10 of the molar value.

Key:
[1] = target: EGFR-C797S/T790M/L858R (Homo sapiens (Human), UniProt P00533, C797S/L858R/T790M); assay: Enzymatic activity test (ADP-Glo) EGFR-C797S/T790M/L858R; format: biochemical; conditions: kinase
Procedure: (§1) • 1. […] Test information:
(§2) To assess the effect of compounds on the activity of wild-type and mutant EGFR kinases, kinase activity was tested by measuring ATP consumption in an enzymatic reaction using an ADP-Glo (Promega Corporation) kit. Samples to be tested were dissolved in DMSO and diluted in a gradient. In a microplate, an EGFR kinase, a reaction buffer (containing Tris-HCl with a pH of 7.5, MgCl2, DTT and BSA), a kinase substrate Poly(Glu4, Tyr1) and a sample (a total volume of 20 μL per well) were added per well, while a blank control (no enzyme and sample) and a negative control (no sample) were set up; incubated for 15 minutes at 23° C.; added with 5 μL of ATP, and reacted at 23° C. for 60 minutes; added with ADP-Glo Reagent, and continuously reacted for 40 minutes at room temperature to inactivate the redundant ATP; then, added with a Kinase Detection Reagent, and reacted at room temperature for 30 minutes, then the chemiluminescence intensity L of each well was measured. […] IC50 values were calculated according to the above calculation using 4Parameter Logistic Model in XLfit software. • 3.

[2] = target: EGFR-WT (Homo sapiens (Human), UniProt P00533); assay: Enzymatic activity test (ADP-Glo) EGFR-WT; format: biochemical; conditions: kinase
Chain of EGFR-WT (P00533 25-1210): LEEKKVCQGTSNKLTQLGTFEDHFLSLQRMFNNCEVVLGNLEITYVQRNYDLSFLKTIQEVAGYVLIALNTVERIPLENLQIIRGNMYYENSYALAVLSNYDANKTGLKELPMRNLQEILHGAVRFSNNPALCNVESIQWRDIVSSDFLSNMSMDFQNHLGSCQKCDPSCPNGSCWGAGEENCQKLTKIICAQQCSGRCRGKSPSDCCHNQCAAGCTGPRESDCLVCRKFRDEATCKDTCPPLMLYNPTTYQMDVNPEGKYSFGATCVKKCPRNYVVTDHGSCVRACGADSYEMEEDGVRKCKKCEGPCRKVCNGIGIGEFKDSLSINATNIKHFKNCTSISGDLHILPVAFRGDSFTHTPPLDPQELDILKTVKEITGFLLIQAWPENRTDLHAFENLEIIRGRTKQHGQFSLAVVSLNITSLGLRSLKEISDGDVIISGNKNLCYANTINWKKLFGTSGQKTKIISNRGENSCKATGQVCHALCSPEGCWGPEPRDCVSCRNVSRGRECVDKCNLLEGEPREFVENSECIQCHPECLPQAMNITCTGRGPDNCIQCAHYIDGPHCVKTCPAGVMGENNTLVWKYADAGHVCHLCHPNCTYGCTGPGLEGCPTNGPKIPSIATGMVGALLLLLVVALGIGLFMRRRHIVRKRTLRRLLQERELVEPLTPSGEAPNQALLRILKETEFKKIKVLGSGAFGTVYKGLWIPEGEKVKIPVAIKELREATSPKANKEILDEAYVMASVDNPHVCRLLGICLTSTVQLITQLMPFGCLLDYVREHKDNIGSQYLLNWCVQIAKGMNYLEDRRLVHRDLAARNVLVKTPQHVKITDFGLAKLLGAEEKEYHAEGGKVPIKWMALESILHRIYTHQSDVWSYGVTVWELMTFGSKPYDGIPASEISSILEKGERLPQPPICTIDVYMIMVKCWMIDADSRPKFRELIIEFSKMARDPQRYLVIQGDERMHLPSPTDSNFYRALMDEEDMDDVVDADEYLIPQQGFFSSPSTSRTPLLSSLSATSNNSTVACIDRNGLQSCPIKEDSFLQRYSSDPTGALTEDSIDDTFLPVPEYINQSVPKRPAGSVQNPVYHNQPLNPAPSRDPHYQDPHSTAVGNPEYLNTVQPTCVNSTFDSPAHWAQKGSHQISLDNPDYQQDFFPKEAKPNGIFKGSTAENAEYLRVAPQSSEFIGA
Procedure: as §1, §2

Chain of EGFR-C797S/T790M/L858R (P00533 25-1210 T790M/C797S/L858R): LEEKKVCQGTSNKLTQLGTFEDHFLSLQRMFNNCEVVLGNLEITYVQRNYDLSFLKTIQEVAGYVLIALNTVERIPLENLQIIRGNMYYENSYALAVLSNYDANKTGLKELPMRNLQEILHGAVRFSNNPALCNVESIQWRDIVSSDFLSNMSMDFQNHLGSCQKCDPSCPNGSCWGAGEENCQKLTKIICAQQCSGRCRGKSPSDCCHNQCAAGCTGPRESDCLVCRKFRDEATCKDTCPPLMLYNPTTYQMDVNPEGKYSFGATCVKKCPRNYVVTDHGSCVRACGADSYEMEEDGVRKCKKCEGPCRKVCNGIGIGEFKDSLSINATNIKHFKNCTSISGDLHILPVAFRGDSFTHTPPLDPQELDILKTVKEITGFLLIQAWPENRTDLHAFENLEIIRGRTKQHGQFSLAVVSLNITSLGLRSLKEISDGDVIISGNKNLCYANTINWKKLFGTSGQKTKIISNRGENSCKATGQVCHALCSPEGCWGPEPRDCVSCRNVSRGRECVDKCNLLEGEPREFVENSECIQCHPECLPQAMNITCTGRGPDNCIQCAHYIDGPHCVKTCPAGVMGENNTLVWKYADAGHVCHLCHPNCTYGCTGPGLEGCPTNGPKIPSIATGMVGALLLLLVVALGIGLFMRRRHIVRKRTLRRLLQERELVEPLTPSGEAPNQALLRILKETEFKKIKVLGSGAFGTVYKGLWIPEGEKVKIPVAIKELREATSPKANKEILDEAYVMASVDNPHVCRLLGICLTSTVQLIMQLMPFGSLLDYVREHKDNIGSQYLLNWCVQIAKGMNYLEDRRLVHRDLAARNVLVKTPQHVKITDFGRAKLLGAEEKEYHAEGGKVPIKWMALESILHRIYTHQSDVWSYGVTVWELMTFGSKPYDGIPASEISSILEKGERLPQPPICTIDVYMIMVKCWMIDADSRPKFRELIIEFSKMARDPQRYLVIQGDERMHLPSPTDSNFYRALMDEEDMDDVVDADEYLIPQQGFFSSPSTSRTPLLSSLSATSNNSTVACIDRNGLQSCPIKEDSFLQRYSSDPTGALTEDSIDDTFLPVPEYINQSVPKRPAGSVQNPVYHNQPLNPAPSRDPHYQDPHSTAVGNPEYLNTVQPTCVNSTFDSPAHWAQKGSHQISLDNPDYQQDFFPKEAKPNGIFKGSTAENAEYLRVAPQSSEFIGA

How did the pIC50 [1] turn out when `COc1cc(N2CCC(N3CCN(C)CC3)CC2)c(C)cc1Nc1ncc(Br)c(Nc2cc(C)ccc2P(C)(C)=O)n1` [Compound 9] was run?
Its pIC50 is 7.40.

What about the pIC50 [2] of the same molecule?
Its pIC50 is 6.79.
